Assay results from the RNAGym collection of RNA variant scans (doi:10.1093/nar/gkz1192).
Read counts are not given, so values of variants with three or more changes are uncertain.

B1: CPEB3 Ribozyme (parent)
chain: UAACAGGGGGCCACAGCAGAAGCGUUCACGUCGCAGCCCCUGUCAGAUUCUGGUGAAUCUGCGAAUUCUGCUGUAUAUCUC

Variants of: B1
Assay: self-cleavage, relative activity (ratio to wild type); higher = more cleavage; in vitro, sequencing
Outline: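 CPEB3 self-cleaving ribozyme mutant libraries were made by rounds of error-prone PCR, barcoded, and transcribed in vitro with T7 RNA polymerase for 5 hours at 37°C. Cleavage occurred during transcription and a 15 min DNase I step before EDTA stop. RNAs were reverse transcribed with template switching and Illumina-sequenced, with DNA sequencing mapping barcodes to variants. Relative activity is the variant's cleaved/total read fraction divided by wild type's (minimum 5 reads), averaged across three batches.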

Variant	self-cleavage
A13G A21U A28U A45G	0.18
A13G A21U U31C C39A	0.14
A13G A21U U80A	0.6
A13G A28C A77G	0.38
A13G A28G A47G U49A U60C	0.13
A13G A28G A57G	0.41
A13G A28G A64U	0.18
A13G A28G A77U	0.46
A13G A28G C38U	0.27
A13G A28G C39A U66C G70A A75G	0.48
A13G A28G G33A C38A A64G U80A	0.06
A13G A28G U41C	0.21
A13G A28G U43A A64G	0.36
A13G A28G U54C A64G	0.15
A13G A28G U54C A65G U67C U72A C79U	0
A13G A28G U58G	0.09
A13G A28G U67C U69C	0.06
A13G A28U A77G	0.77
A13G A28U G42A U49C A56G U67C U78C	0.05
A13G A28U G55A U78C	0.24
A13G A28U G63U A75U	0.59

Variant	self-cleavage
A13G A35G A56U A65G	0.18
A13G A35G A57U	0.49
A13G A35G A65G G70A	0.15
A13G A35G A77G	0.84
A13G A35G U48C A77U	0.55
A13G A35G U49A A75G	0.39
A13G A35G U51A U54A A57G	0.72
A13G A35U C40A	0.38
A13G A35U U41A U54A A65G	0.17
A13G A35U U41C A64U	0.17
A13G A45G A56G U80A	0.68
A13G A45G C62U	0.24
A13G A45G U48C U54C U67C	0.24
A13G A45G U51A A77G	0.35
A13G A45G U54C	0.74
A13G A45G U72A	0.43
A13G A45G U80C	0.55
A13G A45U U51C U54C U74C U78C	0.25
A13G A45U U67A U72C	0.11
A13G A45U U67C U78C	0.11
A13G A47G U48G U72C	0.1

Variant	self-cleavage
A13G A47G U51A A57G A65G	0.18
A13G A47U A64U A65G	0.33
A13G A47U U67C U72C	0.08
A13G A56G U66C	0.06
A13G A56G U72A	0.25
A13G A57G U78C	0.64
A13G A64G U66C	0.15
A13G A64U U69A U78C	0.22
A13G C14A A15G	0.81
A13G C14A A20G G24U U31A C38U	0.23
A13G C14A G33A U51A U54C	0.22
A13G C17A U25C U69C A75G	0.09
A13G C17G U41C U49C	0.25
A13G C17U A47G U60C	0.1
A13G C17U U51A	0.22
A13G C23A U25C U49C U69A	0.04
A13G C23A U31A A45U A77U	0.1
A13G C23A U31A G73A	0.1
A13G C23A U43A A45G A65G U66A U76C	0.05
A13G C23A U60C C79U	0.38
A13G C23G U58C G70A	0.07

Variant	self-cleavage
A13G C23U G52C U54C	0.2
A13G C23U U25A A47U A77G	0.05
A13G C23U U26C A57G	0.07
A13G C23U U41A	0.13
A13G C23U U41A A64U U69C	0.14
A13G C23U U51C U66C U80C	0.1
A13G C27A G33A A56U	0.09
A13G C27U A28U U41A U43C U72C	0.22
A13G C27U G53A	0.47
A13G C29U G33A U49C U60A	0.07
A13G C29U G46U C62U U69A	0.11
A13G C29U U51C U69C	0.15
A13G C32A A45G U51C	0.16
A13G C32A A45U G70C	0.09
A13G C32A U43C U67A U72C	0.07
A13G C32U C37A U51A U80C	0.21
A13G C32U U41A U67C A75U	0.06
A13G C34U U41C U58C U60C	0.24
A13G C34U U60A A64G	0.18
A13G C38G U48C U80C	0.1
A13G C38U U43C U72C	0.18
